Measured values published in PubChem BioAssay AID686970 (National Center for Advancing Translational Sciences (NCATS), 2013).
In all, about 360,000 compounds went through this assay and about 6,000 (1.7%) were called active. This list was built around the results that the source calls inconclusive (neither active nor inactive); the mix of calls is not that of the screen. Calls come from the whole dose curve; as a rule, active = well fitted cell-killing curve with a large enough effect; inconclusive = small, poorly fitted or top-dose-only effect, or effect the other way; inactive = flat fitted curve, though single readings scatter. Potencies of inconclusive entries are left out as doubtful fits.

assay: qHTS for induction of synthetic lethality in tumor cells producing 2HG: qHTS for the HT-1080-NT fibrosarcoma cell line; settings: HT-1080-NT fibrosarcoma viability, CellTiter-Glo ATP luminescence, 48 h; activity, negative = less viability: at 46.1 µM (top of the series) unless noted;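 note: NT is the 2HG producing partner of a matched IDH1 knockdown line; nearly all actives have a fitted effect of over 55% in size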;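 for activity, negative = less viability: 0% = DMSO-treated cells and -100% = media-only wells without cells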
How it was run: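 Fibrosarcoma NT cells, 750 per well in 5% FBS RPMI, were exposed to compound for 48 hours. Viability: CellTiter-Glo luminescence.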
Potency is the fitted concentration of half-maximal effect; tags give direction and shape of the fitted curve.

| SMILES | Potency | activity, negative = less viability |
| --- | --- | --- |
| COc1ccc(C(=O)CSc2[nH]c(=O)cc(C(F)(F)F)c2C#N)cc1 | inconclusive [cytotoxic, single point] | – |
| Cc1nc(NC(=O)CCl)sc1C(=O)N(C)C | inconclusive [cytotoxic, single point] | – |
| CN(C)CCNC(=O)C1Cc2c(-c3ccccc3Oc3ccccc3)ccnc2O1 (stereo not given) | inconclusive [cytotoxic, partial curve, poor fit] | – |
| CCc1ccc(C(=O)COC(=O)c2cc([N+](=O)[O-])ccc2N2CCOCC2)cc1 | active: 9.2 µM | – |
| CCN(CC)CCn1c2ccccc2c2cnc(N=CN(C)C)c(C#N)c21 | inconclusive [cytotoxic, single point] | – |
| CCCCN(C=O)c1c(CC)nc2c(OCc3ccc(Cl)cc3Cl)cccn12 | inconclusive [cytotoxic, single point] | – |
| Cc1sc2ncnc(SCC(=O)N3CCCC3=O)c2c1C | inconclusive [cytotoxic, single point] | – |
| C=C1C(=O)C=C[C@]2(C)C[C@@H]3OC(=O)[C@](C)(O)[C@H]3C[C@@H]12 | – | inconclusive: -30.1% [cytotoxic] |
| Cc1ccc(OCC(=O)Nc2ccccc2F)cc1C | inconclusive [rising, partial curve] | – |
| CC(=O)Nc1ccc(Sc2ccccc2C(=O)Nc2ccc(F)cc2)cn1 | – | inactive: -4.44% |
| O=C(Nc1ccccn1)c1cc(-c2cccnc2)nc2ccc(Br)cc12 | – | inconclusive: -32.1% [cytotoxic] |
| CCOc1ccc(/C=N/Nc2ccccc2)cc1 | inconclusive [cytotoxic, partial curve] | – |
| O=C(NCCCn1ccnc1)/C(=C/c1ccco1)NC(=O)c1ccco1 | inconclusive [rising, single point] | – |
| COc1ccc(-n2ccc(-c3nn(-c4cccc(C(F)(F)F)c4)ccc3=O)n2)cc1 | – | inactive: -6.4% |
| Cc1ccc(CSCC(=O)NCc2ccc3c(c2)OCO3)cc1 | inconclusive [cytotoxic, single point] | – |
| CCn1cc(CCCC(=O)NCc2cccc(OC)c2)c2ccccc21 | – | inactive: 2.25% |
| CC[n+]1c(/C=C/C=C/N(C(C)=O)c2ccccc2)sc2cc(OC)ccc21 | inconclusive [cytotoxic, single point] | – |
| FC(F)Sc1ccc(N=C2NN=C(c3ccc4c(c3)OCCO4)CS2)cc1 | inconclusive [cytotoxic, partial curve] | – |
| N#CC1(NC(=O)COC(=O)Cc2c[nH]c3ccccc23)CCCCC1 | – | inactive: -1.19% |
| CC(C)n1ncc2c(C(=O)N3CCN(c4ccccc4)CC3)cc(-c3ccccc3)nc21 | – | inactive: -27% |
| COc1cc(/C=N/O)ccc1OCc1ccc(C(=O)O)cc1 | inconclusive [cytotoxic, partial curve] | – |
| CCOc1cc(/C=N/Nc2nnc(C)n2N)ccc1O | inconclusive [cytotoxic, single point] | – |
| Cc1nc(Nc2nc3ccccc3o2)nc2c1CCC2 | – | inactive: -1.03% |

| SMILES | Potency | activity, negative = less viability |
| --- | --- | --- |
| CN1CCN(c2oc(COc3ccc(-c4ccccc4)cc3)nc2C#N)CC1 | inconclusive [cytotoxic, single point] | – |
| CCC(C)Nc1nc(-c2cccc(OC)c2O)nc2ccccc12 (stereo not given) | inconclusive [cytotoxic, single point] | – |
| CN(C)c1ccc(C=Nc2ccccc2C(N)=O)cc1 | inconclusive [cytotoxic, single point] | – |
| CC[C@@]1(c2ccccc2C)C(=O)N(C(=O)OC)N1C(=O)OC | – | inactive: 8.71% |
| CCOC(=O)C[n+]1c(C)sc2ccc(OC)cc21 | inconclusive [cytotoxic, partial curve, poor fit] | – |
| NNC(=O)c1cnn(-c2ccccc2)c1-n1cccc1 | inconclusive [cytotoxic, single point] | – |
| O=C(/C=C/c1ccc2c(c1)OCCCO2)c1ccccc1O | inconclusive [cytotoxic, single point] | – |
| O=C(OCc1nc2ccsc2c(=O)[nH]1)c1ccccc1 | – | inactive: 18% |
| Cc1ccc(C(=O)N(C)CC(=O)Nc2ccc(Cl)c(C(F)(F)F)c2)cc1S(=O)(=O)N1CCCCC1 | inconclusive [cytotoxic, single point] | – |
| COc1ccc(CNC(=O)Cn2cnc3c(NCc4ccccc4)ncnc32)cc1 | active: 14.6 µM | – |
| CCCC(=O)Nc1nc2ccc(NC(=O)c3cccnc3)cc2s1 | active: 6.31 µM | – |
| Cc1noc(-c2ccc(C(F)(F)F)cc2)c1NC(=O)Nc1ccc(Cl)cc1 | inconclusive [cytotoxic, single point] | – |
| CCOC(=O)c1c(C(C)(C)C)oc2ccc(O)cc12 | inconclusive [cytotoxic, single point] | – |
| Cc1ccc(OCC(=O)Nc2sc3c(c2C#N)CC(C)(C)NC3(C)C)cc1 | active: 20.6 µM | – |
| CCOC(=O)C1=C(c2ccccc2)NC(=O)NC1c1ccc(O)c(Cl)c1 (stereo not given) | active: 11.6 µM | – |
| Cc1ccc(NC(=O)c2cccs2)cc1[N+](=O)[O-] | – | inactive: -18.3% |
| COc1ccc(-c2nc(SCC(=O)Nc3nccs3)c(-c3ccc(Cl)cc3)[nH]2)cc1 | inconclusive [cytotoxic, partial curve] | – |
| CC(=O)Oc1ccccc1C(=O)O | inconclusive [rising, full curve, poor fit] | – |
| CCN(CC)C(=O)[C@H]1C[C@H](CC(=O)NCc2ccc(OC)c(OC)c2)C(=O)N2CCc3c([nH]c4ccc(Cl)cc34)[C@]12C | inconclusive [cytotoxic, single point] | – |
| COc1cc(OC)cc(C(=O)N/N=C\c2ccoc2)c1 | active: 3.66 µM | – |
| Cc1ccsc1/C=N/NC(=O)c1nnn(-c2nonc2N)c1CSc1ccccc1 | inconclusive [rising, single point] | – |
| COc1cccc(CNC(=O)Cn2c(=O)oc3cc(S(=O)(=O)N4CCCCC4)ccc32)c1 | inconclusive [cytotoxic, single point] | – |
